This passage reports cell count results from the supplement of paper PMC4604168 (melanoma cell lines).

Some of the results follow. Repeats are few or missing, and single values can be far off.
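Also: cell number obtained by counting DAPI-stained nuclei in high-throughput microscope images with image analysis software, screen run in 1,536-well plates.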

The test system of the assay is LOXIMVI. Kind of assay: cell count relative to DMSO control; melanoma cells; higher = more viable cells. To be noted: library dose: low library concentration; 72 h.
Regarding `Nc1ccn([C@@H]2O[C@H](CO)[C@@H](O)C2(F)F)c(=O)n1` [gemcitabine] + Oc1nc(-c2ccc(C(F)(F)F)cc2)nc2c1CSCC2 [XAV939] (first compound 0.0004 µM, partner dose 2 µM), the cell count came to 49%. `Nc1ccn([C@@H]2O[C@H](CO)[C@@H](O)C2(F)F)c(=O)n1` [gemcitabine] + COc1ccc2c(c1)CCC1C2CCC2(C)C(NCCCCCCN3C(=O)C=CC3=O)CCC12 [U73122] (first compound 0.0004 µM, partner dose 0.4 µM) registered a cell count of 94.2%. The result for `CC(=O)c1c(C)c2cnc(Nc3ccc(N4CCNCC4)cn3)nc2n(C2CCCC2)c1=O` [palbociclib] + O=c1cc(-c2cccc3c2Sc2ccccc2S3)oc(N2CCOCC2)c1 [KU55933] (first compound 0.04 µM, partner dose 1 µM) reads 78.7%; that for `CC(=O)c1c(C)c2cnc(Nc3ccc(N4CCNCC4)cn3)nc2n(C2CCCC2)c1=O` [palbociclib] + Cc1cc([N+](=O)[O-])ccc1NS(=O)(=O)c1cc(Cl)ccc1Cl [FH535] (first compound 0.04 µM, partner dose 1 µM), 78.1%; that for `Nc1ncn([C@H]2C[C@H](O)[C@@H](CO)O2)c(=O)n1` [decitabine] + CCCCCCCCCCCC1=C(O)C(=O)C=C(O)C1=O [Embelin] (first compound 0.1 µM, partner dose 1.2 µM), 111%. Molecule `Nc1ccn([C@@H]2O[C@H](CO)[C@@H](O)C2(F)F)c(=O)n1` [gemcitabine] + CCCCCCCCCCCC1=C(O)C(=O)C=C(O)C1=O [Embelin] (first compound 0.0004 µM, partner dose 1.2 µM) came in with a cell count of 128%.

With `Nc1nc(F)nc2c1ncn2[C@@H]1O[C@H](CO)[C@@H](O)[C@@H]1O` [fludarabine] + CC(C)CCN1c2nc(Nc3cc(F)c(O)c(F)c3)ncc2N(C)C(=O)C1C [BID1870] (first compound 0.2 µM, partner dose 0.2 µM), the cell count amounted to 97.7%. For `CO[C@H]1C[C@@H]2CC[C@@H](C)[C@@](O)(O2)C(=O)C(=O)N2CCCC[C@H]2C(=O)O[C@H]([C@H](C)C[C@@H]2CC[C@@H](OCCO)[C@H](OC)C2)CC(=O)[C@H](C)/C=C(\C)[C@@H](O)[C@@H](OC)C(=O)[C@H](C)C[C@H](C)/C=C/C=C/C=C/1C` [everolimus] + COc1ccc(-c2ccc3c(N4CCOCC4)nc(N4C[C@@H](C)O[C@@H](C)C4)nc3n2)cc1CO [KU0063794] (first compound 0.02 µM, partner dose 0.02 µM), the cell count is 84%.

In turn, `CC(=O)O[C@@]12CO[C@@H]1C[C@H](O)[C@@]1(C)C(=O)[C@H](O)C3=C(C)[C@@H](OC(=O)[C@H](O)[C@@H](NC(=O)OC(C)(C)C)c4ccccc4)C[C@@](O)([C@@H](OC(=O)c4ccccc4)[C@H]21)C3(C)C` [Docetaxel] + CCN(CC)CCCCNc1ncc2cc(-c3cc(OC)cc(OC)c3)c(NC(=O)NC(C)(C)C)nc2n1 [PD173074] (first compound 0.0001 µM, partner dose 0.1 µM) returned a cell count of 54%. For `Nc1nc(F)nc2c1ncn2[C@@H]1O[C@H](CO)[C@@H](O)[C@@H]1O` [fludarabine] + CN(NC(=O)CC(=O)NN(C)C(=S)c1ccccc1)C(=S)c1ccccc1 [STA4783] (first compound 0.2 µM, partner dose 0.006 µM), the cell count was 67.1%. The molecule `Nc1ncn([C@H]2C[C@H](O)[C@@H](CO)O2)c(=O)n1` [decitabine] + c1cc(-c2cnn3cc(-c4ccc(OCCN5CCCCC5)cc4)cnc23)ccn1 [Dorsomorphin] (first compound 0.1 µM, partner dose 0.4 µM) came in with a cell count of 126%. The result for `CC(=O)c1c(C)c2cnc(Nc3ccc(N4CCNCC4)cn3)nc2n(C2CCCC2)c1=O` [palbociclib] + COc1cc(N2CCC(N3CCN(C)CC3)CC2)ccc1Nc1ncc(Cl)c(Nc2ccccc2S(=O)(=O)C(C)C)n1 [NVP-TAE684] (first compound 0.04 µM, partner dose 0.08 µM) reads 108%.

Molecule `CC(=O)O[C@@]12CO[C@@H]1C[C@H](O)[C@@]1(C)C(=O)[C@H](O)C3=C(C)[C@@H](OC(=O)[C@H](O)[C@@H](NC(=O)OC(C)(C)C)c4ccccc4)C[C@@](O)([C@@H](OC(=O)c4ccccc4)[C@H]21)C3(C)C` [Docetaxel] + CCCCCCCCCCCC1=C(O)C(=O)C=C(O)C1=O [Embelin] (first compound 0.0001 µM, partner dose 1.2 µM) yielded a cell count of 78.1%.
